# Test results as given in the supplement of paper PMC8728848.
# This is one part of the list.
# B1: Mg1lysM (Mycosphaerella graminicola) (protein)
# chain: QRNPITITPQFDCGATNSQQYVARSGDTLTKIAQEIYHDVVGVCDIARANNLADPNRIDAGTPYTIPINCQTYDRNSCL
# How the values were obtained:
# Test in all cases: glycan array binding signal (z-score within array); higher = stronger binding
# Details in all cases: glycan notation: IUPAC condensed, linker removed
# [1] = molecular target: Gal(b1-4)GlcNAc(b1-2)[Gal(b1-4)GlcNAc(b1-6)]Man(a1-6)[Gal(b1-4)GlcNAc(b1-2)Man(a1-3)]Man(b1-4)GlcNAc(b1-4)[Fuc(a1-6)]GlcNAc
# Summary of the method: (§1)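 The binding signal is a Z-score computed within each array. Data were drawn from 3228 arrays in the Consortium for Functional Glycomics database, restricted to those with a known protein sequence. Scores were averaged over arrays of the same protein sequence at different concentrations or buffers, and over linkers, and negative values can be taken as non-binding.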
# [2] = molecular target: Gal(b1-4)GlcNAc(b1-2)[Gal(b1-4)GlcNAc(b1-6)]Man(a1-6)[GlcNAc(b1-4)][Gal(b1-4)GlcNAc(b1-2)Man(a1-3)]Man(b1-4)GlcNAc(b1-4)GlcNAc
# Summary of the method: as §1
# [3] = molecular target: Gal(b1-4)GlcNAc(b1-2)[Gal(b1-4)GlcNAc(b1-6)]Man(a1-6)[GlcNAc(b1-4)][Gal(b1-4)GlcNAc(b1-2)[Gal(b1-4)GlcNAc(b1-4)]Man(a1-3)]Man(b1-4)GlcNAc(b1-4)[Fuc(a1-6)]GlcNAc
# Summary of the method: as §1
# [4] = molecular target: Gal(b1-4)GlcNAc(b1-3)Gal(b1-3)GalNAc
# Summary of the method: as §1
# [5] = molecular target: Gal(b1-4)GlcNAc(b1-3)Gal(b1-3)GlcNAc
# Summary of the method: as §1
# [6] = molecular target: Gal(b1-4)GlcNAc(b1-3)Gal(b1-4)Glc
# Summary of the method: as §1
# [7] = molecular target: Gal(b1-4)GlcNAc(b1-3)Gal(b1-4)GlcNAc
# Summary of the method: as §1
# [8] = molecular target: Gal(b1-4)GlcNAc(b1-3)Gal(b1-4)GlcNAc(b1-2)Man(a1-3)[Gal(b1-4)GlcNAc(b1-3)Gal(b1-4)GlcNAc(b1-2)Man(a1-6)]Man(b1-4)GlcNAc(b1-4)GlcNAc
# Summary of the method: as §1
# [9] = molecular target: Gal(b1-4)GlcNAc(b1-3)Gal(b1-4)GlcNAc(b1-2)Man(a1-3)[Gal(b1-4)GlcNAc(b1-3)Gal(b1-4)GlcNAc(b1-2)Man(a1-6)]Man(b1-4)GlcNAc(b1-4)[Fuc(a1-6)]GlcNAc
# Summary of the method: as §1
# [10] = molecular target: Gal(b1-4)GlcNAc(b1-3)Gal(b1-4)GlcNAc(b1-2)[Gal(b1-4)GlcNAc(b1-3)Gal(b1-4)GlcNAc(b1-6)]Man(a1-6)[Gal(b1-4)GlcNAc(b1-3)Gal(b1-4)GlcNAc(b1-2)Man(a1-3)]Man(b1-4)GlcNAc(b1-4)GlcNAc
# Summary of the method: as §1
# [11] = molecular target: Gal(b1-4)GlcNAc(b1-3)Gal(b1-4)GlcNAc(b1-2)[Gal(b1-4)GlcNAc(b1-3)Gal(b1-4)GlcNAc(b1-6)]Man(a1-6)[Gal(b1-4)GlcNAc(b1-3)Gal(b1-4)GlcNAc(b1-2)Man(a1-3)]Man(b1-4)GlcNAc(b1-4)[Fuc(a1-6)]GlcNAc
# Summary of the method: as §1
# [12] = molecular target: Gal(b1-4)GlcNAc(b1-3)Gal(b1-4)GlcNAc(b1-3)Gal(b1-4)GlcNAc
# Summary of the method: as §1
# [13] = molecular target: Gal(b1-4)GlcNAc(b1-3)Gal(b1-4)GlcNAc(b1-3)Gal(b1-4)GlcNAc(b1-2)Man(a1-3)[Gal(b1-4)GlcNAc(b1-3)Gal(b1-4)GlcNAc(b1-3)Gal(b1-4)GlcNAc(b1-2)Man(a1-6)]Man(b1-4)GlcNAc(b1-4)GlcNAc
# Summary of the method: as §1
# [14] = molecular target: Gal(b1-4)GlcNAc(b1-3)Gal(b1-4)GlcNAc(b1-3)Gal(b1-4)GlcNAc(b1-2)Man(a1-3)[Gal(b1-4)GlcNAc(b1-3)Gal(b1-4)GlcNAc(b1-3)Gal(b1-4)GlcNAc(b1-2)Man(a1-6)]Man(b1-4)GlcNAc(b1-4)[Fuc(a1-6)]GlcNAc
# Summary of the method: as §1
# [15] = molecular target: Gal(b1-4)GlcNAc(b1-3)Gal(b1-4)GlcNAc(b1-3)Gal(b1-4)GlcNAc(b1-2)[Gal(b1-4)GlcNAc(b1-3)Gal(b1-4)GlcNAc(b1-3)Gal(b1-4)GlcNAc(b1-6)]Man(a1-6)[Gal(b1-4)GlcNAc(b1-3)Gal(b1-4)GlcNAc(b1-3)Gal(b1-4)GlcNAc(b1-2)Man(a1-3)]Man(b1-4)GlcNAc(b1-4)[Fuc(a1-6)]GlcNAc
# Summary of the method: as §1
# [16] = molecular target: Gal(b1-4)GlcNAc(b1-3)Gal(b1-4)GlcNAc(b1-3)Gal(b1-4)GlcNAc(b1-3)Gal(b1-4)GlcNAc(b1-2)Man(a1-3)[Gal(b1-4)GlcNAc(b1-3)Gal(b1-4)GlcNAc(b1-3)Gal(b1-4)GlcNAc(b1-3)Gal(b1-4)GlcNAc(b1-2)Man(a1-6)]Man(b1-4)GlcNAc(b1-4)GlcNAc
# Summary of the method: as §1
# [17] = molecular target: Gal(b1-4)GlcNAc(b1-3)Gal(b1-4)GlcNAc(b1-3)Gal(b1-4)GlcNAc(b1-3)Gal(b1-4)GlcNAc(b1-2)Man(a1-3)[Gal(b1-4)GlcNAc(b1-3)Gal(b1-4)GlcNAc(b1-3)Gal(b1-4)GlcNAc(b1-3)Gal(b1-4)GlcNAc(b1-2)Man(a1-6)]Man(b1-4)GlcNAc(b1-4)[Fuc(a1-6)]GlcNAc
# Summary of the method: as §1
# [18] = molecular target: Gal(b1-4)GlcNAc(b1-3)Gal(b1-4)GlcNAc(b1-3)Gal(b1-4)GlcNAc(b1-3)Gal(b1-4)GlcNAc(b1-2)[Gal(b1-4)GlcNAc(b1-3)Gal(b1-4)GlcNAc(b1-3)Gal(b1-4)GlcNAc(b1-3)Gal(b1-4)GlcNAc(b1-6)]Man(a1-6)[Gal(b1-4)GlcNAc(b1-3)Gal(b1-4)GlcNAc(b1-3)Gal(b1-4)GlcNAc(b1-3)Gal(b1-4)GlcNAc(b1-2)Man(a1-3)]Man(b1-4)GlcNAc(b1-4)[Fuc(a1-6)]GlcNAc
# Summary of the method: as §1
# [19] = molecular target: Gal(b1-4)GlcNAc(b1-3)Gal(b1-4)GlcNAc(b1-3)Gal(b1-4)GlcNAc(b1-3)Gal(b1-4)GlcNAc(b1-3)Gal(b1-4)GlcNAc(b1-2)Man(a1-3)[Gal(b1-4)GlcNAc(b1-3)Gal(b1-4)GlcNAc(b1-3)Gal(b1-4)GlcNAc(b1-3)Gal(b1-4)GlcNAc(b1-3)Gal(b1-4)GlcNAc(b1-2)Man(a1-6)]Man(b1-4)GlcNAc(b1-4)GlcNAc
# Summary of the method: as §1
# [20] = molecular target: Gal(b1-4)GlcNAc(b1-3)Gal(b1-4)GlcNAc(b1-3)Gal(b1-4)GlcNAc(b1-3)Gal(b1-4)GlcNAc(b1-3)Gal(b1-4)GlcNAc(b1-2)Man(a1-3)[Gal(b1-4)GlcNAc(b1-3)Gal(b1-4)GlcNAc(b1-3)Gal(b1-4)GlcNAc(b1-3)Gal(b1-4)GlcNAc(b1-3)Gal(b1-4)GlcNAc(b1-2)Man(a1-6)]Man(b1-4)GlcNAc(b1-4)[Fuc(a1-6)]GlcNAc
# Summary of the method: as §1
# [21] = molecular target: Gal(b1-4)GlcNAc(b1-3)Gal(b1-4)GlcNAc(b1-3)Gal(b1-4)GlcNAc(b1-3)Gal(b1-4)GlcNAc(b1-3)Gal(b1-4)GlcNAc(b1-2)[Gal(b1-4)GlcNAc(b1-3)Gal(b1-4)GlcNAc(b1-3)Gal(b1-4)GlcNAc(b1-3)Gal(b1-4)GlcNAc(b1-3)Gal(b1-4)GlcNAc(b1-6)]Man(a1-6)[Gal(b1-4)GlcNAc(b1-3)Gal(b1-4)GlcNAc(b1-3)Gal(b1-4)GlcNAc(b1-3)Gal(b1-4)GlcNAc(b1-3)Gal(b1-4)GlcNAc(b1-2)Man(a1-3)]Man(b1-4)GlcNAc(b1-4)[Fuc(a1-6)]GlcNAc
# Summary of the method: as §1
# [22] = molecular target: Gal(b1-4)GlcNAc(b1-3)Gal(b1-4)GlcNAc(b1-3)Gal(b1-4)GlcNAc(b1-3)Gal(b1-4)GlcNAc(b1-3)Gal(b1-4)GlcNAc(b1-3)Gal(b1-4)GlcNAc(b1-2)Man(a1-3)[Gal(b1-4)GlcNAc(b1-3)Gal(b1-4)GlcNAc(b1-3)Gal(b1-4)GlcNAc(b1-3)Gal(b1-4)GlcNAc(b1-3)Gal(b1-4)GlcNAc(b1-3)Gal(b1-4)GlcNAc(b1-2)Man(a1-6)]Man(b1-4)GlcNAc(b1-4)GlcNAc
# Summary of the method: as §1
# [23] = molecular target: Gal(b1-4)GlcNAc(b1-3)Gal(b1-4)GlcNAc(b1-3)GalNAc
# Summary of the method: as §1
binder,measurement,setting,value
B1,glycan array binding signal (z-score),[1],-0.034
same,glycan array binding signal (z-score),[2],-0.059
same,glycan array binding signal (z-score),[3],-0.058
same,glycan array binding signal (z-score),[4],-0.077
same,glycan array binding signal (z-score),[5],-0.081
same,glycan array binding signal (z-score),[6],-0.071
same,glycan array binding signal (z-score),[7],-0.08
same,glycan array binding signal (z-score),[8],-0.056
same,glycan array binding signal (z-score),[9],-0.069
same,glycan array binding signal (z-score),[10],-0.063
same,glycan array binding signal (z-score),[11],-0.051
same,glycan array binding signal (z-score),[12],-0.082
same,glycan array binding signal (z-score),[13],-0.073
same,glycan array binding signal (z-score),[14],-0.06
same,glycan array binding signal (z-score),[15],-0.066
same,glycan array binding signal (z-score),[16],-0.073
same,glycan array binding signal (z-score),[17],-0.032
same,glycan array binding signal (z-score),[18],-0.018
same,glycan array binding signal (z-score),[19],-0.086
same,glycan array binding signal (z-score),[20],-0.073
same,glycan array binding signal (z-score),[21],-0.042
same,glycan array binding signal (z-score),[22],-0.053
same,glycan array binding signal (z-score),[23],-0.075
